Hit rate of the full screen: of about 310,000 compounds, about 2,200 (0.71%) showed an effect of 50% or more. The effect is printed as a negative number. This is one part of the list.
Each compound was assayed against human ether-à-go-go-related gene (hERG) potassium channel (human, UniProt Q12809) (assay: primary screen, population patch clamp on CHO cells stably expressing hERG).
human ether-à-go-go-related gene (hERG) potassium channel, sequence (Q12809 whole entry, looked up): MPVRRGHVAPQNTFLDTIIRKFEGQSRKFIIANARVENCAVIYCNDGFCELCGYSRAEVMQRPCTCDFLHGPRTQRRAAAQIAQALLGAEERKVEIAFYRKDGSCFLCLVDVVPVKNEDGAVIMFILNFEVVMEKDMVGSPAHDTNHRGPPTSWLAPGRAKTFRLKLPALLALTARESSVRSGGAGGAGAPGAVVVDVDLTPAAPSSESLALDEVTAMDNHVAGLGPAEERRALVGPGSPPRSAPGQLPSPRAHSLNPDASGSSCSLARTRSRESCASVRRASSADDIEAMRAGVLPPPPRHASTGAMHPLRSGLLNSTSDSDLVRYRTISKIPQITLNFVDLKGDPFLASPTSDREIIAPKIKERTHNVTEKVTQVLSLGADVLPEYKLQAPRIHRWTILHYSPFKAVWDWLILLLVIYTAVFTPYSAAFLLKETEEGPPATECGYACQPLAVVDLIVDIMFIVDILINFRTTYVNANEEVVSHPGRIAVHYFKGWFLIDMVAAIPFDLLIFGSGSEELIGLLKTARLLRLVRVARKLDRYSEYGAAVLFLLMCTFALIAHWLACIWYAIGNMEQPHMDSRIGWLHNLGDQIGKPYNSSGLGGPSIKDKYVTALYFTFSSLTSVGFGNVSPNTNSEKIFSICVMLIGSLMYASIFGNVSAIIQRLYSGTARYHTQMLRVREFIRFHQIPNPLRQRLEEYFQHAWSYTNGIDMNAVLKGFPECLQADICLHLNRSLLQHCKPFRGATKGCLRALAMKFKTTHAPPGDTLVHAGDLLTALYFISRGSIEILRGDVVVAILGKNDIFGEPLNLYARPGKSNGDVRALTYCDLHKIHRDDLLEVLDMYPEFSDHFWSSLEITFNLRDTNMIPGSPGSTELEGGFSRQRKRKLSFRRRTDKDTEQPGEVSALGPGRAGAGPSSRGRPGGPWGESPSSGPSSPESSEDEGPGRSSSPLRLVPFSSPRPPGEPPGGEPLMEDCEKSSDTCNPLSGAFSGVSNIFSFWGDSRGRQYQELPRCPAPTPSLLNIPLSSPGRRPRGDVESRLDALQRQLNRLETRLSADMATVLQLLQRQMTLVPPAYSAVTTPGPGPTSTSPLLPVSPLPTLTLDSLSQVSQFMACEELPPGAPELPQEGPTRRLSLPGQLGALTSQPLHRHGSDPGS
In the case of `COc1ccc(S(=O)(=O)NNC(=O)Cc2csc(C)n2)cc1[N+](=O)[O-]`, the “hERG current change (%, negative = inhibition) at 1uM” value is reported as 19.3%. With `c1ccc(CCc2ccccc2-c2nc(-c3cccnc3)no2)cc1` the “hERG current change (%, negative = inhibition) at 1uM” value was 18.3%. With `COCCCNS(=O)(=O)c1ccc2[nH]c3c(c2c1)CCCCC3` the “hERG current change (%, negative = inhibition) at 1uM” value was 12.6%. In the case of `C/C(=N\Nc1nc2ccccc2c(=O)n1O)c1ccco1`, the “hERG current change (%, negative = inhibition) at 1uM” value is reported as 10.3%. `CCc1ccc2c(Cl)c(C(=O)N/N=C/c3c[nH]c4ccccc34)sc2c1` was tested, and the “hERG current change (%, negative = inhibition) at 1uM” value was 4.09%. With `COc1ccc(/C=C/C(=O)OCC(=O)N2CC(=O)Nc3ccccc32)cc1S(=O)(=O)N1CCOCC1` the “hERG current change (%, negative = inhibition) at 1uM” value was 12.2%. `O=C(c1cccc(S(=O)(=O)Nc2ccc(F)cc2)c1)N1CCCC1` was tested, and the “hERG current change (%, negative = inhibition) at 1uM” value was 9.34%. With `COc1cc(OC)cc(C(=O)Nc2ncc3c(n2)CC(C)CC3=O)c1` (centres unmarked) the “hERG current change (%, negative = inhibition) at 1uM” value was 5.83%. With `O=C1CCC[C@@H]2[C@H]3CCC[N+]4([O-])CCC[C@@H](CN12)[C@@H]34` (some centres unmarked) the “hERG current change (%, negative = inhibition) at 1uM” value was 12.6%. With `Cn1nnnc1SCC(=O)Nc1nn(-c2ccccc2)nc1C(N)=O` the “hERG current change (%, negative = inhibition) at 1uM” value was 1.55%. `CCO[C@H]1OC(C(=O)NCc2nc3ccccc3[nH]2)=C[C@@H](C2CC2)[C@@H]1CCCO` was tested, and the “hERG current change (%, negative = inhibition) at 1uM” value was 22.7%. With `O=C(NNC(=O)c1ccc[nH]1)Nc1cc(Cl)cc(Cl)c1` the “hERG current change (%, negative = inhibition) at 1uM” value was 9.53%. In the case of `C/C(=C\C(=O)c1ccc(Br)cc1)Nc1cccc(Cl)c1`, the “hERG current change (%, negative = inhibition) at 1uM” value is reported as 14%. With `CC(NC(=O)c1ccccc1)C(=O)N/N=C/c1ccco1` (centres unmarked) the “hERG current change (%, negative = inhibition) at 1uM” value was 16.4%. With `O=C(Nc1ccc2ccccc2c1)NC1CCS(=O)(=O)C1` (centres unmarked) the “hERG current change (%, negative = inhibition) at 1uM” value was 6.63%. For `O=C(COc1ccc(Cl)cc1Cl)N/N=C/c1ccccn1`, the “hERG current change (%, negative = inhibition) at 1uM” value was -9.58%. For `NC(=S)N=Nc1c(O)[nH]c2cc(F)c(F)cc12`, the “hERG current change (%, negative = inhibition) at 1uM” value was 13.6%. For `O=C(CCCCCn1c(=S)[nH]c2ccccc2c1=O)N1CCOCC1`, the “hERG current change (%, negative = inhibition) at 1uM” value was 7.98%. For `Cc1c(-c2cccc(NC(=O)c3cccs3)c2)nc2ncccn12`, the “hERG current change (%, negative = inhibition) at 1uM” value was 0.543%. `O=C(NCc1ccccc1F)Nc1ccc([N+](=O)[O-])cc1` was tested, and the “hERG current change (%, negative = inhibition) at 1uM” value was 15.4%. `O=C(COC(=O)c1ccc2c(c1)C(=O)N(Cc1ccncc1)C2=O)Nc1ccccc1[N+](=O)[O-]` was tested, and the “hERG current change (%, negative = inhibition) at 1uM” value was -2.11%. `O/N=C/c1ccnc(SCc2ccc(Cl)cc2)n1` was tested, and the “hERG current change (%, negative = inhibition) at 1uM” value was 0.167%. With `O=C(CNCc1ccccc1)NCCCN1CCCC1=O.O=C(O)C(=O)O` the “hERG current change (%, negative = inhibition) at 1uM” value was 14.8%. For `CCN(CC)C(=O)Cc1ccccc1`, the “hERG current change (%, negative = inhibition) at 1uM” value was 13.5%. With `O=C(N/C(=C\c1cccnc1)C(=O)N1CCOCC1)c1cccc(Br)c1` the “hERG current change (%, negative = inhibition) at 1uM” value was 12.5%. For `COC(=O)c1sc(S(=O)(=O)NCCCN(C)C)c(C(=O)OC)c1C`, the “hERG current change (%, negative = inhibition) at 1uM” value was 10.6%. For `NC(=O)c1ccc(NC(=O)COC(=O)c2ccc3c(c2)OCCO3)cc1`, the “hERG current change (%, negative = inhibition) at 1uM” value was 7.54%. With `CCc1ccc(/C=C2/Sc3ccccc3N(CC(=O)NCCCN3CCOCC3)C2=O)cc1` the “hERG current change (%, negative = inhibition) at 1uM” value was 0.526%. For `CCOCCCn1c(=NC(C)=O)c(C#N)cc2c(=O)n3cccc(C)c3nc21`, the “hERG current change (%, negative = inhibition) at 1uM” value was -7.46%. With `CC(C)c1ccc(C2(C)NC(=O)N(CC(=O)NC3CCCC(C)C3C)C2=O)cc1` (centres unmarked) the “hERG current change (%, negative = inhibition) at 1uM” value was 6.29%. `Cc1nnc2c(N3CCN(CCO)CC3)nc3ccccc3n12` was tested, and the “hERG current change (%, negative = inhibition) at 1uM” value was 7.4%. `CC(C)(C)c1cc(NC(=O)CCSc2nnc3ccccn23)cc(C(C)(C)C)c1` was tested, and the “hERG current change (%, negative = inhibition) at 1uM” value was 11.9%. For `CCOc1cc(NS(=O)(=O)CC)c(OCC)cc1NC(=O)c1ccco1`, the “hERG current change (%, negative = inhibition) at 1uM” value was 1.42%. For `O=C(O)c1ccc(S(=O)(=O)/N=C2\C=C(Nc3ccccc3F)C(=O)c3ccccc32)cc1`, the “hERG current change (%, negative = inhibition) at 1uM” value was 4.01%. For `COc1ccc(C)cc1S(=O)(=O)Nc1cc(Cl)ccc1Cl`, the “hERG current change (%, negative = inhibition) at 1uM” value was 3.11%. `O=C(O)c1cccnc1Sc1ncnc2sc3c(c12)CCC3` was tested, and the “hERG current change (%, negative = inhibition) at 1uM” value was 7.51%. In the case of `O=C(N/N=C\c1ccc(F)cc1)c1cc(OCC(F)(F)F)ccc1OCC(F)(F)F`, the “hERG current change (%, negative = inhibition) at 1uM” value is reported as -8.67%. With `Cc1ccc(CNCC(O)(c2ccccc2)c2ccc(F)cc2)cc1` (centres unmarked) the “hERG current change (%, negative = inhibition) at 1uM” value was -2.41%. In the case of `COc1ccc(OC)c(C2C3=C(N=C4SCC(=O)N42)c2ccccc2CC3)c1` (centres unmarked), the “hERG current change (%, negative = inhibition) at 1uM” value is reported as 3.33%. `Cc1c(C)c2cccnc2c2ncccc12` was tested, and the “hERG current change (%, negative = inhibition) at 1uM” value was 9.57%. For `Cc1ccc(N2CC(C(=O)Nc3ccc4c(c3)OCO4)CC2=O)cc1C` (centres unmarked), the “hERG current change (%, negative = inhibition) at 1uM” value was 11.6%. For `O=C1CCCc2c1[nH]c1ccccc21`, the “hERG current change (%, negative = inhibition) at 1uM” value was 19.2%. For `COC(=O)c1c(N2C(=O)[C@H]3[C@@H](C2=O)[C@]2(C(=O)Nc4c2ccc(C)c4C)N2CCC[C@@H]32)sc(C)c1C`, the “hERG current change (%, negative = inhibition) at 1uM” value was 13.6%. With `CC(C)COc1cccc(C(=O)NC2(C)CCS(=O)(=O)C2)c1` (centres unmarked) the “hERG current change (%, negative = inhibition) at 1uM” value was -1.01%.

Reference: article PMC4336329 (PLoS ONE, 2015)
